Assay results as given in the supplement of paper PMC8728848.
This is one part of the list.

Columns and labels:
Assay in all cases: glycan array binding signal (z-score within array); higher = stronger binding
Conditions in all cases: glycan notation: IUPAC condensed, linker removed
[1] = target: Man(a1-3)[Man(a1-6)]Man(a1-6)[Man(a1-3)]Man(b1-4)GlcNAc(b1-4)GlcNAc
Method in brief: (§1)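 Columns mapping to the same glycan were averaged after glycan names were converted to IUPAC-condensed notation. The data come from 3228 arrays in the Consortium for Functional Glycomics database, limited to those with an available protein sequence. Binding is reported as a within-array Z-score averaged across arrays of one protein sequence and across linkers.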

[2] = target: Man(a1-3)[Man(a1-6)]Man(b1-4)GlcNAc(b1-4)GlcNAc
Method in brief: as §1

[3] = target: Man(a1-3)[Man(a1-6)]Man(b1-4)GlcNAc(b1-4)[Fuc(a1-6)]GlcNAc
Method in brief: as §1

Man(a1-6)Man = target: Man(a1-6)Man
Method in brief: as §1

Man(b1-4)GlcNAc = target: Man(b1-4)GlcNAc
Method in brief: as §1

MurNAc(b1-4)GlcNAc = target: MurNAc(b1-4)GlcNAc
Method in brief: as §1

Neu5Ac(a2-3)Gal = target: Neu5Ac(a2-3)Gal
Method in brief: as §1

[4] = target: Neu5Ac(a2-3)Gal(b1-3)GalNAc
Method in brief: as §1

[5] = target: Neu5Ac(a2-3)Gal(b1-3)GalNAc(b1-3)Gal(a1-4)Gal(b1-4)Glc
Method in brief: as §1

[6] = target: Neu5Ac(a2-3)Gal(b1-3)GalNAc(b1-3)Gal(b1-4)GlcNAc
Method in brief: as §1

[7] = target: Neu5Ac(a2-3)Gal(b1-3)GalNAc(b1-4)[Neu5Ac(a2-3)]Gal(b1-4)Glc
Method in brief: as §1

[8] = target: Neu5Ac(a2-3)Gal(b1-3)GalNAc(b1-4)[Neu5Ac(a2-8)Neu5Ac(a2-3)]Gal(b1-4)Glc
Method in brief: as §1

[9] = target: Neu5Ac(a2-3)Gal(b1-3)GalNAc6S
Method in brief: as §1

[10] = target: Neu5Ac(a2-3)Gal(b1-3)GlcNAc
Method in brief: as §1

[11] = target: Neu5Ac(a2-3)Gal(b1-3)GlcNAc(b1-2)Man
Method in brief: as §1

[12] = target: Neu5Ac(a2-3)Gal(b1-3)GlcNAc(b1-2)Man(a1-3)[GlcNAc(b1-4)][Neu5Ac(a2-3)Gal(b1-3)GlcNAc(b1-2)Man(a1-6)]Man(b1-4)GlcNAc(b1-4)GlcNAc
Method in brief: as §1

[13] = target: Neu5Ac(a2-3)Gal(b1-3)GlcNAc(b1-2)Man(a1-3)[Neu5Ac(a2-3)Gal(b1-3)GlcNAc(b1-2)Man(a1-6)]Man(b1-4)GlcNAc(b1-4)GlcNAc
Method in brief: as §1

[14] = target: Neu5Ac(a2-3)Gal(b1-3)GlcNAc(b1-3)Gal(b1-3)GlcNAc
Method in brief: as §1

[15] = target: Neu5Ac(a2-3)Gal(b1-3)GlcNAc(b1-3)Gal(b1-4)GlcNAc
Method in brief: as §1

[16] = target: Neu5Ac(a2-3)Gal(b1-3)GlcNAc(b1-3)GalNAc
Method in brief: as §1

[17] = target: Neu5Ac(a2-3)Gal(b1-3)GlcNAc(b1-4)Gal(b1-4)Glc
Method in brief: as §1

[18] = target: Neu5Ac(a2-3)Gal(b1-3)GlcNAc(b1-6)GalNAc
Method in brief: as §1

[19] = target: Neu5Ac(a2-3)Gal(b1-3)GlcNAc6S
Method in brief: as §1

[20] = target: Neu5Ac(a2-3)Gal(b1-3)[Fuc(a1-4)]GlcNAc
Method in brief: as §1

[21] = target: Neu5Ac(a2-3)Gal(b1-3)[Fuc(a1-4)]GlcNAc(b1-3)Gal(b1-3)[Fuc(a1-4)]GlcNAc
Method in brief: as §1

[22] = target: Neu5Ac(a2-3)Gal(b1-3)[Fuc(a1-4)]GlcNAc(b1-3)Gal(b1-4)[Fuc(a1-3)]GlcNAc
Method in brief: as §1

[23] = target: Neu5Ac(a2-3)Gal(b1-3)[GlcNAc(b1-6)]GalNAc
Method in brief: as §1

[24] = target: Neu5Ac(a2-3)Gal(b1-3)[Neu5Ac(a2-3)Gal(b1-4)]GlcNAc
Method in brief: as §1

[25] = target: Neu5Ac(a2-3)Gal(b1-3)[Neu5Ac(a2-6)]GalNAc
Method in brief: as §1

[26] = target: Neu5Ac(a2-3)Gal(b1-3)[Neu5Ac(a2-6)]GlcNAc(b1-3)[Fuc(a1-3)[Gal(b1-4)]GlcNAc(b1-6)]Gal(b1-4)Glc
Method in brief: as §1

[27] = target: Neu5Ac(a2-3)Gal(b1-3)]Neu5Ac(a2-3)Gal(b1-4)]GlcNAc
Method in brief: as §1

Neu5Ac(a2-3)Gal(b1-4)Glc = target: Neu5Ac(a2-3)Gal(b1-4)Glc
Method in brief: as §1

[28] = target: Neu5Ac(a2-3)Gal(b1-4)GlcNAc
Method in brief: as §1

[29] = target: Neu5Ac(a2-3)Gal(b1-4)GlcNAc(b1-2)Man
Method in brief: as §1

[30] = target: Neu5Ac(a2-3)Gal(b1-4)GlcNAc(b1-2)Man(a1-3)[GlcNAc(b1-2)Man(b1-4)GlcNAc(b1-2)Man(a1-6)]Man(b1-4)GlcNAc(b1-4)GlcNAc
Method in brief: as §1

[31] = target: Neu5Ac(a2-3)Gal(b1-4)GlcNAc(b1-2)Man(a1-3)[GlcNAc(b1-4)][Neu5Ac(a2-3)Gal(b1-4)GlcNAc(b1-2)Man(a1-6)]Man(b1-4)GlcNAc(b1-4)GlcNAc
Method in brief: as §1

[32] = target: Neu5Ac(a2-3)Gal(b1-4)GlcNAc(b1-2)Man(a1-3)[Neu5Ac(a2-3)Gal(b1-4)GlcNAc(b1-2)Man(a1-6)]Man(b1-4)GlcNAc(b1-4)GlcNAc
Method in brief: as §1

B1: LSECtin (Homo sapiens), Q6UXB4 (protein)
chain: MDTTRYSKWGGSSEEVPGGPWGRWVHWSRRPLFLALAVLVTTVLWAVILSILLSKASTERAALLDGHDLLRTNASKQTAALGALKEEVGDCHSCCSGTQAQLQTTRAELGEAQAKLMEQESALRELRERVTQGLAEAGRGREDVRTELFRALEAVRLQNNSCEPCPTSWLSFEGSCYFFSVPKTTWAAAQDHCADASAHLVIVGGLDEQGFLTRNTRGRGYWLGLRAVRHLGKVQGYQWVDGVSLSFSHWNQGEPNDAWGRENCVMMLHTGLWNDAPCDSEKDGWICEKRHNC
[1]
  glycan array binding signal (z-score): -0.225
[2]
  glycan array binding signal (z-score): -0.028
[3]
  glycan array binding signal (z-score): -0.138
Man(a1-6)Man
  glycan array binding signal (z-score): -0.171
Man(b1-4)GlcNAc
  glycan array binding signal (z-score): -0.195
MurNAc(b1-4)GlcNAc
  glycan array binding signal (z-score): -0.137
Neu5Ac(a2-3)Gal
  glycan array binding signal (z-score): -0.195
[4]
  glycan array binding signal (z-score): -0.163
[5]
  glycan array binding signal (z-score): -0.166
[6]
  glycan array binding signal (z-score): -0.355
[7]
  glycan array binding signal (z-score): -0.231
[8]
  glycan array binding signal (z-score): -0.128
[9]
  glycan array binding signal (z-score): 0.622
[10]
  glycan array binding signal (z-score): -0.034
[11]
  glycan array binding signal (z-score): -0.097
[12]
  glycan array binding signal (z-score): -0.14
[13]
  glycan array binding signal (z-score): -0.132
[14]
  glycan array binding signal (z-score): -0.204
[15]
  glycan array binding signal (z-score): -0.135
[16]
  glycan array binding signal (z-score): -0.119
[17]
  glycan array binding signal (z-score): -0.127
[18]
  glycan array binding signal (z-score): -0.133
[19]
  glycan array binding signal (z-score): -0.147
[20]
  glycan array binding signal (z-score): -0.079
[21]
  glycan array binding signal (z-score): -0.13
[22]
  glycan array binding signal (z-score): -0.099
[23]
  glycan array binding signal (z-score): -0.134
[24]
  glycan array binding signal (z-score): -0.113
[25]
  glycan array binding signal (z-score): -0.171
[26]
  glycan array binding signal (z-score): -0.14
[27]
  glycan array binding signal (z-score): -0.118
Neu5Ac(a2-3)Gal(b1-4)Glc
  glycan array binding signal (z-score): -0.116
[28]
  glycan array binding signal (z-score): -0.075
[29]
  glycan array binding signal (z-score): -0.127
[30]
  glycan array binding signal (z-score): -0.272
[31]
  glycan array binding signal (z-score): -0.14
[32]
  glycan array binding signal (z-score): -0.133
